Over roughly 33,000 sequences, “E-score (-0.5 to 0.5)” has its median near -0.012; the highest 2% begin near 0.27. The list shows a part of the results.
Target: T1, Vhr1 (UniProt P40522)
T1 sequence: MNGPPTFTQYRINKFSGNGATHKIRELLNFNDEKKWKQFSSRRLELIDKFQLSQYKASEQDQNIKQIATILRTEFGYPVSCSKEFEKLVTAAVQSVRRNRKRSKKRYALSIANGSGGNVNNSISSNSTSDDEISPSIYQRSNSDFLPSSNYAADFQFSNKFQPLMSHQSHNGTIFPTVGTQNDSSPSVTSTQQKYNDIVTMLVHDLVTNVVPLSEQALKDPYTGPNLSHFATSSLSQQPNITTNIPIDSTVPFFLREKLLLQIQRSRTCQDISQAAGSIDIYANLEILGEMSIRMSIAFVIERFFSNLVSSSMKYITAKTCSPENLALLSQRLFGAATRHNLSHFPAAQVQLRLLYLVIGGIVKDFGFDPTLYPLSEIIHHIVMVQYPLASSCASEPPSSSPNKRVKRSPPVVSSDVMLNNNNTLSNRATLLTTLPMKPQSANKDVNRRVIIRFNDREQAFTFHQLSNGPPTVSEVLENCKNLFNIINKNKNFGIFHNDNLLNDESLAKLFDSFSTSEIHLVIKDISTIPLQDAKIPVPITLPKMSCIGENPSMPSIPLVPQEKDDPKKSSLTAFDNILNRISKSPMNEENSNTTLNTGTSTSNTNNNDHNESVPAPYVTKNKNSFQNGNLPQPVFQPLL
Experiment: PBM E-score (8-mer binding enrichment) (E-score (-0.5 to 0.5)); higher = stronger / more preferred TF binding; most listed sequences are background and not binding sites
Settings: protein concentration: 200 nM; construct: GST-full length
In short: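 For each ungapped eight-base word taken together with its reverse complement, the Universal PBM Analysis Suite assigned an E-score. Binding data came from GST-tagged yeast transcription factors, applied at about 100-200 nM, on universal all-10-mer Agilent arrays made double-stranded by primer extension. Fluorescent anti-GST marked bound protein, and scans were normalised with masliner.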

Sequence | PBM E-score
AAATGCGT | 0.00275
AGCGGCCC | -0.187
GAGTCTGA | 0.157
CATAGACA | 0.084
ATTTGTAC | -0.0243
CAAGCCTG | 0.105
ATGTTGCC | -0.186
GCGTTCAC | -0.0653
ACTACAGT | 0.261
AAGCTACA | -0.124
ATGCTTAA | -0.0317
CATCACGC | 0.121
AAGATTAA | 0.0153
GAAACCTA | -0.197
GACCCTTA | -0.11
CATTCCTC | 0.129
ATTGGGCG | 0.00968
AATCACGC | 0.354
CTATTTAC | 0.00675
ATATATTG | 0.0713
GAGCTGAA | -0.0931
TATTGCGA | 0.254

Sequence | PBM E-score
CTGGTATA | -0.00271
TCCCGCCA | 0.0546
GGCTTATA | -0.129
ACCGAGTA | 0.0825
ATAGAGGG | -0.00111
ACTTCTCC | -0.116
ATACCTAT | 0.16
CGTCTCAC | -0.00514
AATGCAAG | -0.123
CAATCCGC | 0.0522
CGAGAGAC | 0.0447
GCGAGTGA | 0.172
AACATCAA | 0.0279
TGGTAAAA | -0.0288
ACTAAGAT | 0.165
CGTAGGTC | -0.172
ACTTTAAT | -0.146
ATGCAGTA | 0.0873
GAAAGAGA | -0.0159
ACCGTCCC | -0.144
CTTCTAGA | -0.226
ATCCGCTG | 0.0611

Sequence | PBM E-score
AACTTCCG | -0.0253
GTATTCAA | 0.00227
ACGGAGCG | 0.0309
AACAGAAT | -0.0741
CACCTGCG | 0.0143
ATATTGGC | 0.0463
CCGGGTGA | 0.208
AAGTGCGT | -0.0339
CTCGGCAG | -0.0396
AAGCACCT | -0.15
GCATAAAA | -0.124
AAGATAGC | -0.19
AAGCTTTG | -0.181
ATGTGAGC | 0.103
TCAGGTCA | -0.00531
ACTCGTGA | 0.159
CGTCCCGC | 0.00796
AACGTTCG | -0.0484
AGTAGCTC | -0.0175
ATATGCCG | 0.0437
TAGTTTCA | 0.092
GTAAATAA | -0.125

Sequence | PBM E-score
GACAGTCA | 0.158
AGGACATA | -0.133
GACATAAA | 0.0904
GTCCTGTA | -0.0863
GTATCCTA | -0.105
CACAGACG | 0.104
TACATGAA | 0.0664
CACCTCGG | 0.0719
ACTGGACT | -0.0357
GGAACTCC | 0.0126
GTACCCGA | -0.161
ACACTGCT | -0.0775
CTCTCCGA | -0.125
GATACACA | 0.099
CATTTTGG | -0.164
CTAAATCA | 0.0382
AGAAATAG | -0.28
ACTTCTAA | -0.211
GCCCGTCC | -0.0732
TACTTGCA | -0.00561

Source: the supplement of paper PMC3334620
